Laboratory results reported in US4772586A, “Novel derivatives of arginine vasopressin antagonists” (Medical College of Ohio, priority 1986, dated 1988).
Part of at least one peptide drawing is inferred or uncertain, most often the ends. *1 amine or outer side, *2 acyl side, *3 side chain or, on linkers, in order; H or OH if unused. Where a SMILES comes first, the peptide text is derived from it. Bridges are numbered along the chain shown (N, C = ends). [ ]: non-standard residue; d: D form. The star is where a group is joined. X1 = O=C(CC1(S[*:2])CCCCC1)[*:1]; βAla = NCCC(=O)O; Sar = CNCC(=O)O; NHBu = CCCCN*

Key:
[1] = system: vasopressor response to arginine vasopressin; test: Antagonism to the vasopressor response (Anti-VP); type: in vivo; settings: for Anti-VP ED: Table 1, effective dose; for Anti-VP Potency ED: evaluated as in Example 8
In short: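 In vivo antagonism of arginine vasopressin pressor response per Dyckes et al. Effective dose (nmol/kg) is the antagonist dose making the response to 2x agonist units, injected 20 min later, equal that to 1x units. pA2 is the negative log of effective dose divided by 67 ml/kg distribution volume.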

[2] = system: ethanol-anesthesized water-loaded rats; test: Activity as antidiuretic agonists, intravenous injection; type: in vivo; settings: Table 1; antidiuretic agonism, i.v.; ^+ = weak partial agonistic activity not clearly related to dose
Experimental: Activity as antidiuretic agonists was determined by intravenous injection of the compounds being evaluated in ethanol-anesthesized water-loaded rats in accordance with Sawyer, Endocrinology, vol. 63 (1958) at 694. Antagonism of the antidiuretic response to subsequent injections of arginine vasopressin was tested by the method of Sawyer et al., Science, vol. 212 (1981) at 49.

[3] = system: antidiuretic response to arginine vasopressin; test: Antagonism of the antidiuretic response to arginine vasopressin (Anti-ADH); type: in vivo, rats; settings: for Anti-ADH Potency ED: evaluated as in Example 8; for Anti-ADH ED: Table 1, effective dose reducing response to 2x units of agonist injected 20 min after antagonist to response with 1x units
In short: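 Compounds were given intravenously to ethanol-anesthetized, water-loaded rats, followed by arginine vasopressin challenge. Effective dose (nmol/kg) is the antagonist dose that reduces the response to 2x units of agonist, given 20 min later, to the response to 1x units. pA2 is the negative log of effective dose divided by an estimated 67 ml/kg distribution volume.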

SMILES | Anti-VP ED [1] [nmol/kg] | Anti-VP Potency ED ([1]; Table 4) [nanomoles per kilogram] | Anti-ADH Potency ED ([3]; Table 4, ^+ = mixed) | also measured
N=C(N)NCCC[C@H](NC(=O)[C@@H]1CCCN1C(=O)[C@@H]1CSSC2(CCCCC2)CC(=O)N[C@@H](Cc2ccc(O)cc2)C(=O)N[C@@H](Cc2ccccc2)C(=O)N[C@@H](CCC(N)=O)C(=O)N[C@@H](CC(N)=O)C(=O)N1)C(=O)NCC(N)=O [d(CH2)5 AVP, [1-(beta-mercapto-beta,beta-cyclopentamethylenepropionic acid)]-arginine vasopressin, reference compound] (YFQNCPRG-NH2; linker N-5 via X1) | 0.56 ± 0.11 | – | – | Agonistic Activities ADH [2]: 0.03 ± 0.01 units/mg
N=C(N)NCCC[C@H](NC(=O)[C@@H]1CCCN1C(=O)[C@@H]1CSSC2(CCCCC2)CC(=O)N[C@@H](Cc2ccc(O)cc2)C(=O)N[C@@H](Cc2ccccc2)C(=O)N[C@@H](CCC(N)=O)C(=O)N[C@@H](CC(N)=O)C(=O)N1)C(=O)O [desGly(NH2)^9 d(CH2)5 AVP, [1-(beta-mercapto-beta,beta-cyclopentamethylenepropionic acid), 9-desglycinamide]-arginine vasopressin] (YFQNCPR-OH; linker N-5 via X1) | 0.73 ± 0.07 | – | – | Agonistic Activities ADH [2]: 0.04 ± 0.01 units/mg
COc1ccc(C[C@@H]2NC(=O)CC3(CCCCC3)SSC[C@@H](C(=O)N3CCC[C@H]3C(=O)N[C@@H](CCCNC(=N)N)C(=O)N[C@@H](C)C(N)=O)NC(=O)[C@H](CC(N)=O)NC(=O)[C@H](CCC(N)=O)NC(=O)[C@H](Cc3ccccc3)NC2=O)cc1 [Example 9(b), [1-(beta-mercapto-beta,beta-cyclopentamethylenepropionic acid), 2-(O-methyl)tyrosine, 9-alaninamide]-argine vasopressin] (Y(Me)FQNCPRA-NH2; linker N-5 via X1) | – | – | – | Anti-VP: ED ([1]; text after Table 2): 0.13±0.03 nanomoles per kilogram; Anti-ADH: ED ([3]; text after Table 2, (mixed)): about 77 nanomoles per kilogram
CC[C@H](C)[C@H](NC(=O)[C@H](CCCNC(=N)N)NC(=O)[C@@H]1CCCN1C(=O)[C@@H]1CSSC2(CCCCC2)CC(=O)N[C@H](Cc2ccccc2)C(=O)N[C@@H](Cc2ccccc2)C(=O)N[C@@H]([C@@H](C)CC)C(=O)N[C@@H](CC(N)=O)C(=O)N1)C(N)=O [Ile(NH2), [1-(beta-mercapto-beta,beta-cyclopentamethylenepropionic acid), 2-D-phenylalanine, 4-isoleucine, 9-isoleucinamide]-arginine vasopressin] ([dF]FINCPRI-NH2; linker N-5 via X1) | – | – | – | ED ratio ([1]; Table 2, anti-VP ED relative to anti-ADH ED): 3.3; Anti-VP Potency ED ([1]; Table 2): 6.3 ± 0.8 nanomoles per kilogram; Anti-ADH Potency ED ([3]; Table 2): 1.9 ± 0.5 nanomoles per kilogram
CNC(=O)CN(C)C(=O)[C@H](CCCNC(=N)N)NC(=O)[C@@H]1CCCN1C(=O)[C@@H]1CSSC2(CCCCC2)CC(=O)N[C@@H](Cc2ccc(OC)cc2)C(=O)N[C@@H](Cc2ccccc2)C(=O)N[C@@H](CCC(N)=O)C(=O)N[C@@H](CC(N)=O)C(=O)N1 [d(CH2)5 [Tyr(Me)^2, Sar(NHMe)^9]AVP, [1-(beta-mercapto-beta,beta-cyclopentamethylenepropionic acid), 2-O-methyltyrosine, 9-sarcosine-N-methylamide]-arginine vasopressin] (Y(Me)FQNCPR[Sar]-NHMe; linker N-5 via X1) | – | 0.32 ± 0.02 | ~ 200 nanomoles per kilogram | –
CCNC(=O)CNC(=O)[C@H](CCCNC(=N)N)NC(=O)[C@@H]1CCCN1C(=O)[C@@H]1CSSC2(CCCCC2)CC(=O)N[C@H]([C@H](C)CC)C(=O)N[C@@H](Cc2ccccc2)C(=O)N[C@@H]([C@@H](C)CC)C(=O)N[C@@H](CC(N)=O)C(=O)N1 [[1-(beta-mercapto-beta,beta-cyclopentamethylenepropionic acid), 2-D-isoleucine, 4-isoleucine, 9-glycine-N-ethylamide]-arginine vasopressin] ([dI]FINCPRG-NHEt; linker N-5 via X1) | – | 21 ± 6 | 0.94 ± 0.11 nanomoles per kilogram | –
CCOc1ccc(C[C@H]2NC(=O)CC3(CCCCC3)SSC[C@@H](C(=O)N3CCC[C@H]3C(=O)N[C@@H](CCCNC(=N)N)C(=O)NCCC(=O)NC)NC(=O)[C@H](CC(N)=O)NC(=O)[C@H](C(C)C)NC(=O)[C@H](Cc3ccccc3)NC2=O)cc1 [1-(beta-mercapto-beta,beta-cyclopentamethyleneproprionic acid), 2-D-(O-ethyl)tyrosine, 4-valine, 9-beta-alanine-N-methylamide]-arginine vasopressin] ([dY](Et)FVNCPR[βAla]-NHMe; linker N-5 via X1) | – | 1.2 ± 0.1 | 1.6 ± 0.1 nanomoles per kilogram | –
CC(C)[C@@H]1NC(=O)[C@H](Cc2ccccc2)NC(=O)[C@@H](Cc2ccccc2)NC(=O)CC2(CCCCC2)SSC[C@@H](C(=O)N2CCC[C@H]2C(=O)N[C@@H](CCCNC(=N)N)C(=O)O)NC(=O)[C@H](CC(N)=O)NC1=O [desGly(NH2)^9 d(CH2)5 [D-Phe^2]VAVP, [1-(beta-mercapto-beta,beta-cyclopentamethylenepropionic acid), 2-D-phenylalanine, 4-valine, 9-desglycinamide]-arginine vasopressin] ([dF]FVNCPR-OH; linker N-5 via X1) | 0.80 ± 0.08 | – | – | Anti-ADH ED [3]: 1.3 ± 0.4 nmol/kg
CC[C@H](C)[C@@H]1NC(=O)[C@H](Cc2ccccc2)NC(=O)[C@@H](Cc2ccccc2)NC(=O)CC2(CCCCC2)SSC[C@@H](C(=O)N2CCC[C@H]2C(=O)N[C@@H](CCCNC(=N)N)C(=O)NCC(N)=O)NC(=O)[C@H](CC(N)=O)NC1=O [d(CH2)5 [D-Phe^2,Ile^ 4]AVP, [1-(beta-mercapto-beta,beta-cyclopentamethylenepropionic acid), 2-D-phenylalanine, 4-isoleucine]-arginine vasopressin, reference compound] ([dF]FINCPRG-NH2; linker N-5 via X1) | 0.99 ± 0.12 | – | – | Anti-ADH ED [3]: 0.46 ± 0.07 nmol/kg
N=C(N)NCCC[C@H](NC(=O)[C@@H]1CCCN1C(=O)[C@@H]1CSSC2(CCCCC2)CC(=O)N[C@@H](Cc2ccc(O)cc2)C(=O)N[C@@H](Cc2ccccc2)C(=O)N[C@@H](CCC(N)=O)C(=O)N[C@@H](CC(N)=O)C(=O)N1)C(N)=O [desGly^9 d(CH2)5 AVP, [1-(beta-mercapto-beta,beta-cyclopentamethylenepropionic acid), 9-desglycine]-arginine vasopressin] (YFQNCPR-NH2; linker N-5 via X1) | 0.27 ± 0.04 | – | – | Agonistic Activities ADH [2]: ~ 0.003 units/mg
CCCCNC(=O)[C@H](CCCNC(=N)N)NC(=O)[C@@H]1CCCN1C(=O)[C@@H]1CSSC2(CCCCC2)CC(=O)N[C@H](Cc2ccc(OCC)cc2)C(=O)N[C@@H](Cc2ccccc2)C(=O)N[C@@H]([C@@H](C)CC)C(=O)N[C@@H](CC(N)=O)C(=O)N1 [[1-beta-mercapto-beta,beta-cyclopentamethylenepropionic acid), 2-(D-O-ethyl)tyrosine, 4-isoleucine, 8-arginine-N-(n-butyl)amide, 9-desglycinamide] vasopressin] ([dY](Et)FINCPR-NHBu; linker N-5 via X1) | – | 2.2 ± 0.4 | 1.7 ± 0.3 nanomoles per kilogram | –
